# The campaign covered roughly 71,000 compounds. About 1,800 (2.5%) were called active. This list was built around the results that the source calls inconclusive (neither active nor inactive); the mix of calls is not that of the screen. The call rests on the fitted dose curve; in most records, active means well fitted activation curve with a large enough effect in the signal ratio, with a control signal flat (not every such curve was filed as active); inconclusive means small, poorly fitted or top-dose-only effect, or effect the other way, or a change in a side signal; inactive means flat fitted curve, though single readings scatter; the % refers to the signal ratio. Where the call is inconclusive, the potency comes from a doubtful curve fit.
# Assay: Cell signaling CRE-BLA (Fsk stim); on activity change, negative = inhibition: % of control where 0% means no effect
# Conditions: CHO CRE-bla reporter (cAMP response element driving beta-lactamase), forskolin EC10, beta-lactamase ratio; activity change, negative = inhibition: at 38.2 µM (top of the series) unless noted
# Outline: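 CRE-bla CHO reporter cells treated with compound titration plus EC10 NKH 477 (water-soluble forskolin), incubated 3 h at 37 °C; CCF4 loading 2 h at room temperature, 460/530 nm emission ratio read, AC50 values derived for positive or negative modulators.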
# Potency means the concentration at half of the fitted maximal effect; tags describe the fitted curve by direction and shape.
SMILES,"activity change, negative = inhibition",Potency
COC(=O)[C@@]1(Cc2ccc(OC)cc2)[C@H]2c3cc(C(=O)N(C)C)n(Cc4ccc(O)c(OC)c4)c3C[C@H]2CN1C(=O)c1ccccc1,inconclusive: 25.4%,–
CC(=O)Nc1ccc(NC(=O)Cn2cnc3c(cnn3C(C)(C)C)c2=O)cc1,inconclusive: 6.91%,–
CCCCOc1ccc(C(=O)N2CCCCCC2)cc1,inconclusive: 8.43%,–
CC(C)(C)c1csc(NC(=O)CSc2nc3ccccc3c(=O)[nH]2)n1,inconclusive: 26.4%,–
CCOc1ccc(NC(=O)C(C)O)c(NS(=O)(=O)c2ccc(CCNC(C)=O)cc2)c1 (centres undefined),inconclusive: 28.3%,–
CCN(Cc1ccccc1)C(=O)CCCOc1ccccc1,inconclusive: 9.65% [at 7.6 µM],–
CN(C)CCC(=O)c1ccc2c(c1)OCO2,inconclusive: -16.6%,–
CCCN1C(=O)c2ccccc2NC1c1ccc(OC)cc1OC (centres undefined),inconclusive: 10%,–
CCN1CCN(c2c(Cl)cccc2NC(=O)c2ccc3c(c2)OCCO3)CC1,inconclusive: 4.56%,–
CCC[C@H]1C(=O)N2C(N(C)C)=Nc3ccc(C)cc3N2C1=O,inconclusive: 25.6% [at 17.1 µM],–
CCOC(=O)N1CCN(C(=O)CSc2nnc(-c3cc(OC)ccc3OC)o2)CC1,inconclusive: 26.7%,–
C[N+](C)(C)CCN[N@@+]1(C)CCCc2ccccc21,inactive: -6.25% [at 7.6 µM],–
N#CC1=C(N)Oc2nc(-c3ccccc3)[nH]c2C1c1cccnc1 (centres undefined),inconclusive: 28.2%,–
O=C(c1cccc(F)c1)N1CCC2(CCCN(c3ccncc3)C2)CC1,inactive,–
COCCn1cc(C(=O)N2CCCC(C)C2)c2c3ccccc3n(C)c2c1=O (centres undefined),inconclusive: 11.3%,–
O=C(c1ccncc1)N1CCC[C@@]2(CCN(c3ccccn3)C2)C1,inactive,–
CCc1nc2ccccc2n(CC)c1=O,–,"inconclusive: 10 µM [rising, partial curve]"
COc1ccc(OC)c(N(CC(=O)NC2CC2)S(=O)(=O)c2ccc(C)cc2)c1,inactive,–
N=c1c(C(=O)NCc2ccco2)cc2c(=O)n3ccccc3nc2n1CCc1ccccc1,–,"inconclusive: 12.6 µM [rising, partial curve]"
CCOC(=O)c1c(C)[nH]c(C(=O)OC)c1CCC(=O)OC,–,"inconclusive: 10 µM [rising, single point]"
C=Cc1ccccc1C=C,inactive,–

SMILES,"activity change, negative = inhibition",Potency
CCCC[C@H]1C(=O)N(c2ccccc2)N(c2ccc(O)cc2)C1=O,–,"inconclusive: 10 µM [falling, partial curve]"
O=C(c1cccs1)N(CC1CCCO1)c1nc(-c2ccccc2)cs1 (centres undefined),inactive,–
Cc1noc(C)c1C(=O)Nc1ccccc1-c1ccccc1,inconclusive: 8.01%,–
COc1cccc(C2C=C(c3ccc(OC)cc3OC)Nc3nnnn32)c1 (centres undefined),–,"inconclusive: 31.6 µM [falling, single point]"
COc1cc(OC)c(-c2nn3c(-c4cccnc4)nnc3s2)cc1OC,–,"inconclusive: 3.98 µM [rising, partial curve]"
Cc1c(NC(=O)CCc2ccc(S(=O)(=O)N3CCOCC3)cc2)c(=O)n(-c2ccccc2)n1C,inconclusive: -2.33%,–
CCOC(=O)CSC(CC)C(=O)Nc1nnc(C(C)C)s1 (centres undefined),–,active: 10 µM
COc1ccc(-c2nc3cnc(Nc4cccc(OC)c4)nc3n(CCC#N)c2=O)cc1,–,"inconclusive: 6.31 µM [rising, partial curve]"
O=c1[nH]c(SCc2ccccc2Cl)nc2c1cnn2-c1ccccc1,–,active: 0.794 µM
CC(=O)OCC1OC(c2ccccc2)C(OC(C)=O)C(OC(C)=O)C1OC(C)=O (centres undefined),inactive,–
CCC(=O)N1c2ccc(S(=O)(=O)N(CCO)Cc3ccccc3)cc2CC1C (centres undefined),inconclusive: 22%,–
N#CCC(=O)NCC1(c2ccccc2)CCCC1,inactive,–
COc1ccc(CN2C(=O)c3cccnc3C2Nc2ccc(OC)c(Cl)c2)cc1 (centres undefined),inconclusive: 13.9%,–
O=C(CSc1nc2cc(Cl)ccc2s1)N1CCN(C(=O)c2ccco2)CC1,inconclusive: 23.3%,–
Cc1ccn2cc(CNS(=O)(=O)c3ccc4c(c3)OCCO4)nc2c1,inactive,–
CCn1c(SCC(=O)c2ccc(Cl)cc2)nnc1C(C)C,inactive,–
COc1ccc2[nH]c(=O)c(CN(Cc3ccccc3)Cc3nnnn3CC3CCCO3)cc2c1 (centres undefined),inactive,–
CCOC(=O)c1c(-c2ccc(C)o2)csc1N,inconclusive: 20.7% [at 7.6 µM],–
COC(=O)c1cc(C(=O)OC)n(Cc2ccc(F)cc2)n1,inconclusive: -0.144%,–
CC(NC(=O)c1cc(-c2ccc(Br)cc2)on1)c1ccccc1 (centres undefined),inconclusive: 10.4%,–
O=C(CNC(=O)c1ccc(Br)o1)Nc1cccc(-c2cnc3ccccc3n2)c1,inconclusive: 16.3%,–

SMILES,"activity change, negative = inhibition",Potency
Cc1nc2cnc(Oc3ccccc3)nc2n(CCC#N)c1=O,inactive,–
O=C(Nc1ccccc1C(=O)NCc1cccnc1)c1ccco1,–,"inconclusive: 10 µM [rising, partial curve]"
CN(C)c1cc2c(Nc3ccc4c(cnn4Cc4ccccc4)c3)ncnc2cn1,inconclusive: 25.2%,–
COC(=O)Cn1c(=NC(=O)CSCC(=O)Nc2cc(C)on2)sc2ccccc21,–,"inconclusive: 12.6 µM [rising, single point]"
CN(C)C(=O)c1ccc(-c2cncnc2-n2ccnc2)cc1,inactive,–
O=C(O)c1nc2ccccc2nc1C(=O)O,inactive,–
N=C1C(c2ccc(Br)cc2)=C(O)C2CCc3ccccc3N12 (centres undefined),–,"inconclusive: 15.8 µM [falling, single point]"
Cc1ccc2[nH]c(=O)c(CN(CC3CCCO3)C(=O)c3ccco3)cc2c1 (centres undefined),inactive,–
O=C1CCCN1c1ccc(S(=O)(=O)N2CCN(c3ccccn3)CC2)cc1,inactive,–
CC(=O)OC1=C(C#N)Cn2ccc3cccc1c32,inactive,–
CN1CCc2c(sc3c2C(=O)NC(c2cccs2)N3)C1 (centres undefined),–,active: 12.6 µM
CCOC(=O)c1cc2c(=O)n(C)c3ccccc3c2s1,inconclusive: -17%,–
O=C(Nc1ccc(Cl)cn1)Nc1cccs1,inconclusive: -31.6%,–
Cc1cc(N2CCOCC2)nc(SCC(=O)c2ccccc2)n1,–,"inconclusive: 10 µM [rising, single point]"
O=C(NCc1ccc2c(c1)OCO2)c1cc(S(=O)(=O)N2CCCCC2)ccc1F,inconclusive: -23.5%,–
CCOC(=O)c1[nH]c2ccccc2c1NC(=O)c1ccc(Br)o1,–,"inconclusive: 6.31 µM [rising, partial curve]"
COc1ccccc1OC(C)C(=O)O (centres undefined),inconclusive: 21.5%,–
COc1cccc(-n2c(C)nc3c(cnn3-c3ccc(C)cc3)c2=O)c1,inconclusive: 31.4%,–
O=C1c2ccccc2-c2ccc(NC(=O)[C@H]3CCCC[C@@H]3C(=O)O)cc21,–,"inconclusive: 5.01 µM [rising, single point]"
COc1ccc(Cc2nnc(SCC(=O)NCc3ccco3)o2)cc1,inconclusive: -16.8%,–
O=C(Cn1cnc2c(nnn2Cc2ccc(F)cc2)c1=O)NC1CCCC1,inconclusive: -20.4%,–

SMILES,"activity change, negative = inhibition",Potency
O=C(c1cccc(C(=O)N2CCN(c3ccc(F)cc3)CC2)c1)N1CCN(c2ccc(F)cc2)CC1,–,"inconclusive: 1 µM [rising, single point]"
N#Cc1cccc(-c2nccc(NCc3cccnc3)n2)c1,–,"inconclusive: 5.01 µM [rising, partial curve]"
CCCCC(CC)CNC(=O)c1ccc2c(c1)OCO2 (centres undefined),inactive: -3.99% [at 7.6 µM],–
Cc1ccc(/C=C/C2=Cc3c(sc(NC(=O)CSc4n[nH]c(N)n4)c3C#N)C(C)(C)C2)o1,inconclusive: -4.19%,–
O=C(CCn1nc(-c2ccccc2)ccc1=O)N1CCOCC1,inactive,–
COc1cc(Nc2nc(SCC#N)nc3ccccc23)cc(OC)c1OC,–,"inconclusive: 12.6 µM [rising, single point]"
O=C1C=CC2=C3c4cc(O)c(O)cc4C[C@@]3(O)COC2=C1O,–,"inconclusive: 3.16 µM [rising, single point]"
C=CCNC(=O)C1CCN(S(=O)(=O)c2ccc(Br)cc2)CC1,inactive,–
O=c1oc2c(CN3CCOCC3)c(O)c(Cl)cc2c2c1CCCC2,inactive,–
Cn1c(=O)c2c(nc(SCC(=O)NC3CCCCC3)n2C)n(C)c1=O,inactive,–
N#CC(=C(/N)Sc1ccccc1N)/C(C#N)=C(/N)Sc1ccccc1N,inactive,–
CN1CCc2c(sc3c2C(=O)NC(c2ccc(-c4cccc(Cl)c4)o2)N3)C1 (centres undefined),inconclusive: 28.6%,–
Cc1cc(Br)ccc1NC(=O)CNC(=O)CN1C(=O)NC2(CCCCCC2)C1=O,–,"inconclusive: 3.98 µM [falling, single point]"
O=C(Nc1cccc(F)c1)N1CC2(CCN(C(=O)c3ccco3)CC2)C1,inactive,–
CC1(C)CC(=O)C2=C(C1)N(Cc1ccco1)C(=O)C2(NC(=O)C1CCCCC1)C(F)(F)F (centres undefined),inactive,–
c1ccc(-c2cc(-c3nc(-c4cccnc4)no3)c3ccccc3n2)cc1,inconclusive: 6.82%,–
O=C(CSc1n[nH]c(-c2ccccc2)n1)c1ccc(O)c(O)c1,inactive,–
Nc1cccc2c1C(=O)N(C(=O)c1ccc(S(=O)(=O)N3CCCCCC3)cc1)C2=O,inconclusive: -2.85% [fluorescent],–
Cc1ccc(S(=O)(=O)N(c2cccc(C(F)(F)F)c2)C2C=CS(=O)(=O)C2)cc1 (centres undefined),inconclusive: -19.5% [at 7.6 µM],–
N#CC1=C(N)Oc2n[nH]c(-c3ccncc3)c2C1c1ccsc1 (centres undefined),inconclusive: 17.4%,–
CC(C)C[C@@H](CC(=O)N[C@H](CC(=O)N[C@@H]1CCNC[C@H]1C(=O)N[C@H](CC(=O)N[C@@H](CCC(=O)O)CC(=O)O)Cc1c[nH]c2ccccc12)C(C)C)NC(=O)[C@@H]1CNCC[C@H]1N,inactive,–

# From PubChem BioAssay AID662 (National Center for Advancing Translational Sciences (NCATS), 2007)
